Among the data in patent US20250066451A1 (SWEDISH ORPHAN BIOVITRUM AB PUBL, published 2025) are Kd and EC50 values, retold here.

Changes are numbered by the printed parent chain. Numbers in names are those of the source.

For orientation: Kd means the equilibrium constant for the complex coming apart. The low end stands for a tighter complex, the high end for a looser complex. The EC50 is the concentration that produces a half-maximal response. Low readings indicate greater potency, high ones weaker potency.

First the molecules themselves.
T1: human IL-1R-I (RnD Systems cat. no. 269-1R/CF) (human, UniProt P14778 18-332, limits assumed)
T1 construct: bought protein; also called hIL-1R-I; hIL-1RI
T1 sequence (looked up): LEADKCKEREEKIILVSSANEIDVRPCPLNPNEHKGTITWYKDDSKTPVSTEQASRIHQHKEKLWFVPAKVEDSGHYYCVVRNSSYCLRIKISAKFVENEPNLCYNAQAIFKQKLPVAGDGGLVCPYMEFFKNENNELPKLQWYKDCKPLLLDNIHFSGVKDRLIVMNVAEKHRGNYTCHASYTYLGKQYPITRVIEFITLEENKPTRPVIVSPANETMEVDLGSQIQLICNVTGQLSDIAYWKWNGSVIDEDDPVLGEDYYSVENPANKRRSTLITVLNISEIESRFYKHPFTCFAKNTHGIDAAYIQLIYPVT

T2: Human IL-1R-I-Fc (Creative BioMart cat. no. IL1RI-771H) (human, UniProt P14778 18-332, limits assumed)
T2 construct: Bought Fc fusion; also called hIL-1R-I-Fc; hIL-1RI-Fc; not shown: Fc part of the bought fusion
T2 sequence (looked up): T1 sequence (looked up)

B1: His6-Z16062 (designed binder)
chain: MGSSHHHHHHLQVDAKYAKEIEEAQMEIFYLPNLTRKQYTAFIRKLFDDPSQSSELLSEAKKLNDSQAPKVD
B2: His6-Z16163 (designed binder)
chain: B1 chain with I21V, E23R, Y30E, K37R, F47L
B3: Z19056 (designed binder)
chain: AQHDEALEVDAKYAKEVEEIQLEIYALPNLTRKQYTAFIRKLLDDPSQSSELLSEAKKLNDSQAPKVDYVLAEAKVLANRELDKYGVSDYYKNLINNAKTVEGVKALIDEILAALPYVPG
notes: Z-ABD001 fusion in periplasmic extract; also called Z-ABD
B4: Z19181 (designed binder)
chain: B3 chain with I20V, A26S, K33R
notes: as for B3
B5: Z19053 (designed binder)
chain: B3 chain with V17I, E19D, I20V, Y25F, A26K, K33R
notes: as for B3
B6: Z19118 (designed binder)
chain: B3 chain with V17I, E19H, I20V, L22Y, Y25F
notes: as for B3
B7: Z19078 (designed binder)
chain: B3 chain with V17I, E19A, I20A, L22M, Y25F, A26G
notes: as for B3
B8: Z19059 (designed binder)
chain: B3 chain with I20A, L22M, A26G
notes: as for B3
B9: Z19151 (designed binder)
chain: B3 chain with E19D, Y25F, K33R
notes: as for B3
B10: Z19115 (designed binder)
chain: B3 chain with V17T, Y25F, A26S
notes: as for B3
B11: Z19159 (designed binder)
chain: B3 chain with V17T, I20V, L22M, Y25F, K33R
notes: as for B3
B12: Z19305 (designed binder)
chain: B3 chain with V17T, E19A, I20V, L22M, Y25F, A26R, K33R
notes: as for B3
B13: Z19171 (designed binder)
chain: B3 chain with V17I, E19D, Y25F, A26G
notes: as for B3
B14: Z19057 (designed binder)
chain: B3 chain with V17I, E19Q, I20V, Y25F, A26G
notes: as for B3
B15: Z19090 (designed binder)
chain: B3 chain with V17I, I20V, L22M, Y25F, A26H, K33R
notes: as for B3
B16: Z19072 (designed binder)
chain: B3 chain with V17I, Y25F, A26S
notes: as for B3
B17: Z19054 (designed binder)
chain: B3 chain with V17I, E19W, I20V, Y25F, A26H
notes: as for B3
B18: Z19183 (designed binder)
chain: B3 chain with V17I, E19D, I20A, L22M, A26D, K33R
notes: as for B3
B19: Z19180 (designed binder)
chain: B3 chain with E19I, L22M, Y25F, A26H, K33R
notes: as for B3
B20: Z19302 (designed binder)
chain: B3 chain with V17I, E19A, I20V, L22M, Y25F, A26H
notes: as for B3
B21: Z19123 (designed binder)
chain: B3 chain with V17I, E19K, I20A, L22M, Y25F, K33R
notes: as for B3
B22: Z19304 (designed binder)
chain: B3 chain with V17T, E19Q, I20V, L22M, Y25F, A26H
notes: as for B3
B23: Z19182 (designed binder)
chain: B3 chain with E19A, L22M, Y25F, A26Q, K33R
notes: as for B3
B24: Z19060 (designed binder)
chain: B3 chain with E19W, I20A, L22M, Y25F, A26D
notes: as for B3
B25: Z19172 (designed binder)
chain: B3 chain with V17L, E19D, I20V, Y25F, A26S, K33R
notes: as for B3
B26: Z19085 (designed binder)
chain: B3 chain with L22Y, Y25F, A26G
notes: as for B3
B27: Z19075 (designed binder)
chain: B3 chain with E19I, L22Y, Y25F, A26G
notes: as for B3
B28: Z19158 (designed binder)
chain: B3 chain with V17T, L22M, Y25F, K33R
notes: as for B3
B29: Z19117 (designed binder)
chain: B3 chain with V17I, E19A, Y25F
notes: as for B3
B30: Z15864-ABD (designed binder)
chain: B3 chain with V17I, E19N, I20A, L22M, Y25F
B31: Z16024-ABD (designed binder)
chain: B3 chain with I20A, L22M, Y25F, A26T
B32: Z16022-ABD (designed binder)
chain: B3 chain with V17I, E19F, I20A, L22M, Y25F, L43F
B33: Z15882-ABD (designed binder)
chain: B3 chain with I20A, L22M, Y25F, A26G, L43F
B34: Z16014-ABD (designed binder)
chain: B3 chain with V17I, E19K, I20A, L22M, Y25F, A26Y
B35: Z15986-ABD (designed binder)
chain: B3 chain with I20A, L22M, Y25F, A26G
B36: Z16017-ABD (designed binder)
chain: B3 chain with I20A, L22M, A26D
B37: Z16010-ABD (designed binder)
chain: B3 chain with V17T, E19Q, I20A, L22M, Y25F, A26N, K33R
B38: Z16018-ABD (designed binder)
chain: B3 chain with E19L, I20A, L22M, Y25F, A26N
B39: Z16019-ABD (designed binder)
chain: B3 chain with V17T, E19Y, I20A, L22M, Y25F, L43F
B40: Z15873-ABD (designed binder)
chain: B3 chain with V17A, E19I, I20A, L22M, Y25F
B41: Z16009-ABD (designed binder)
chain: B3 chain with I20A, Y25F, A26G
B42: Z15947-ABD (designed binder)
chain: B3 chain with V17T, E19I, I20A, L22M, Y25F
B43: Z15889-ABD (designed binder)
chain: B3 chain with E19A, I20A, L22M, Y25F, A26S
B44: Z15972-ABD (designed binder)
chain: B3 chain with E19Q, I20A, L22M, Y25F, A26Y
B45: Z16021-ABD (designed binder)
chain: B3 chain with E19V, I20A, L22M, Y25F, K33R
B46: Z16012-ABD (designed binder)
chain: B3 chain with E19Q, I20A, L22M, Y25F, A26F
B47: Z16013-ABD (designed binder)
chain: B3 chain with V17I, E19S, I20A, L22M, Y25F, A26D
B48: Z16015-ABD (designed binder)
chain: B3 chain with I20A, Q21Y, L22M, A26Y
B49: Z15908-ABD (designed binder)
chain: B3 chain with I20A, Q21Y, L22M, A26N, K33R
B50: Z16016-ABD (designed binder)
chain: B3 chain with E19D, I20A, L22M, A26Y
B51: Z16020-ABD (designed binder)
chain: B3 chain with E19A, I20A, L22M, A26G, L43F

One assay deals with T1, human IL-1R-I (RnD Systems cat. no. …). Description: Biacore SPR, hIL-1R-I immobilized, 1:1 model. The source says: One flow cell surface on the chip was activated and deactivated for use as blank during analyte injections.
A general note: In SPR one partner is held on a chip, and binding of the other changes the refractive index at the surface.
The molecule B1 yielded a Kd of 0.44 nM.

The molecule B2 displayed a Kd of 0.55 nM.

The target in the next assay is T2, Human IL-1R-I-Fc (Creative BioMart cat. …). The assay is described as follows: ELISA, captured Z-ABD, hIL-1R-I-Fc titrated. Background: ELISA stands for enzyme-linked immunosorbent assay.
In the case of B3, the EC50 turned out to be 0.22 nM.

Take B4: the EC50 was 0.18 nM.

Molecule B5 gave an EC50 of 0.24 nM.

For the molecule B6, the EC50 came out at 0.23 nM.

On to B7, for which the response was half-maximal at 0.22 nM (EC50).

Consider B8, for which the EC50 amounted to 0.35 nM.

The molecule B9 returned a half-maximal effective concentration (EC50) of 0.23 nM.

B10 returned an EC50 of 0.23 nM.

B11 displayed an EC50 of 0.21 nM.

As for B12, the EC50 is 0.26 nM.

Take B13: the EC50 was 0.23 nM.

In turn, B14 came in with an EC50 of 0.22 nM.

Molecule B15 returned an EC50 of 0.2 nM.

Take B16: the EC50 was 0.16 nM.

Consider B17, for which the EC50 was found to be 0.25 nM.

B18 came in with an EC50 of 0.22 nM.

B19 displayed an EC50 of 0.2 nM.

Molecule B20 had a 50% effective concentration (EC50) of 0.26 nM.

Molecule B21 displayed an EC50 of 0.26 nM.

Take B22: the concentration giving a half-maximal response (EC50) was 0.27 nM.

For B23, the EC50 was determined as 0.17 nM.

On to B24, for which a half-maximal effect (EC50) was put at 0.22 nM.

B25: the EC50 was 0.16 nM.

B26 showed an EC50 of 0.21 nM.

For the molecule B27, the EC50 was 0.15 nM.

Take B28: the EC50 was determined as 0.15 nM.

B29 registered an EC50 of 0.21 nM.

A further assay has as its target T1, human IL-1R-I (RnD Systems cat. no. …). Description: Biacore kinetic screening, Z-ABD captured on anti-ABD, 100 nM hIL-1R-I.
In the case of B30, the Kd stood at 16 nM.

B31 came in with a dissociation constant (Kd) of 14 nM.

Consider B32, for which the affinity, expressed as Kd, was 15 nM.

The molecule B33 returned a Kd of 9 nM.

In turn, B34 showed an equilibrium dissociation constant (Kd) of 11 nM.

In the case of B35, binding was put at a Kd of 9.5 nM.

Take B36: binding was put at a Kd of 18 nM.

B37: binding was characterised by a dissociation constant (Kd) of 12 nM.

B38 yielded a Kd of 16 nM.

The molecule B39 gave a Kd of 15 nM.

In turn, B40 had a dissociation constant Kd of 23 nM.

With B41, the Kd worked out at 20 nM.

In turn, B42 returned a Kd of 11 nM.

Molecule B43 gave a Kd of 15 nM.

Take B44: the Kd came to 12 nM.

For B45, the Kd came to 9.6 nM.

Molecule B46 had a Kd of 12 nM.

Regarding B47, the Kd was found to be 18 nM.

Turning to B48, the Kd came out at 15 nM.

Regarding B49, binding was characterised by a dissociation constant (Kd) of 17 nM.

For the molecule B50, the Kd was 12 nM.

Regarding B51, the Kd was 20 nM.
